Laboratory results: patent EP4692351A1, “ANTI-CD25 ANTIBODY AND ANTI-CD25 ANTIBODY-DRUG CONJUGATE” (priority 2023, dated 2024)

Tested on: MDA-MB-231 cancer cell-bearing hematopoietic stem cell-transplanted NOG mice
Test: In vivo immunoenhancing effect: flow cytometry of tumor immunocytes in MDA-MB-231-bearing huNOG mice
Design: species or system mouse
Protocol: 5 × 10^6 human breast adenocarcinoma-derived MDA-MB-231 cells (American Type Culture Collection) subcultured in Leibovitz's L-15 medium containing 10% FBS were suspended in Matrigel and subcutaneously transplanted to each female immune-humanized NOG mouse (huNOG mouse) engrafted with human CD34 cells. The mice were grouped on the basis of their tumor volumes. 7 days after transplantation, 1 mg/kg control hIgG1LALA-ADC or 0.1 mg/kg, 0.3 mg/kg, or 1 mg/kg cMAb1_hIgG1LALA-ADC was intravenously administered to each mouse (n = 5). 28 days after ADC administration, tumor was harvested. The harvested tumor mass was treated with gentleMACS (Miltenyi Biotec) to recover cells. The cells were washed with PBS and resuspended therein. Then, the cell suspension was used as a sample for flow cytometry. The amount of PBS in resuspending the cells was the following amount depending on a tumor weight for addition: 0.6 mL for a tumor weight up to 50 mg; 0.9 mL for a tumor weight of 50 to 100 mg; 1.2 mL for a tumor weight of 100 to 150 mg; 1.8 mL for a tumor weight of 150 to 200 mg; and 2.4 mL for a tumor weight of 200 to 300 mg.
Zombie NIR dye solution was prepared by diluting Zombie NIR dye solution attached to Zombie NIR Fixable Viability Kit (BioLegend, Inc.) 1000-fold with PBS. Fc Block solution was prepared by adding and mixing Mouse BD Fc Block (BD Biosciences) solution, Human BD Fc Block solution, and autoMACS Rinsing Solution (Miltenyi Biotec) containing 0.5% BSA (hereinafter, referred to as "MACS buffer") at a ratio of 1:1:48. Foxp3 Fixation/Permeabilization buffer was prepared by mixing 3.5 mL of Concentrate and 10.5 mL of Diluent of Foxp3 Fixation/Permeabilization Concentrate and Diluent (eBioscience, Inc.). Perm wash buffer was prepared by diluting Intracellular Staining Perm Wash Buffer (BioLegend, Inc.) 10-fold with H2O. A cell surface marker antibody cocktail solution was used by adding 2 µL of FITC anti-human CD25 Antibody (BioLegend, Inc.), 1 µL of APC anti-human CD8 Antibody (BioLegend, Inc.), 3 µL of Brilliant Violet 421 anti-human CD4 Antibody (BioLegend, Inc.), 2.5 µL of PE/Cyanine7 anti-human CD45RA Antibody (BioLegend, Inc.), 2 µL of Alexa Fluor 700 anti-mouse CD45 Antibody, 2 µL of Brilliant Violet 605 anti-human CD45 Antibody (BD Biosciences), and Brilliant Violet 650 anti-human CD3 Antibody, and adjusting the whole amount to 50 µL with MACS buffer. An intracellular marker antibody cocktail solution was used by adding 3 µL of PE Mouse anti-Human FoxP3 (BD Biosciences), 3 µL of PerCP/Cyanine5.5 anti-human/mouse Granzyme B Recombinant Antibody (BioLegend, Inc.), 1 µL of Mouse BD Fc Block (BD Biosciences), and 1 µL of Human BD Fc Block, and adjusting the whole amount to 100 µL with Perm wash buffer.
0.1 mL of Zombie NIR dye diluting solution was added to 0.2 mL of the sample for flow cytometry prepared in 9)-2-1, and the mixture was incubated at 4°C for 30 minutes. 0.1 mL of MACS buffer was added thereto, and the mixture was centrifuged, followed by the removal of a supernatant by suction. 0.1 mL of Fc Block solution was added to the remaining cells, which were then incubated at 4°C for 5 minutes. 0.1 mL of the cell surface marker antibody cocktail solution prepared in 9)-2-2 was added to the cells, which were then incubated at 4°C for 30 minutes. Subsequently, 0.1 mL of MACS buffer was added thereto, and the mixture was centrifuged, followed by the removal of a supernatant by suction. 0.2 mL of MACS buffer was added to the remaining cells, and the mixture was further centrifuged to remove a supernatant. This operation was further carried out twice for the washing of the cells. 0.2 mL of Foxp3 Fixation/Permeabilization buffer was added to the cells, which were then incubated at 4°C for 1 hour. 0.2 mL of the intracellular marker antibody cocktail solution was added to the washed cells, which were then incubated at 4°C for 1 hour and then washed twice with Perm wash buffer. […]

[1] = 3 mg/kg i.v. 7 days after transplantation, tumor 21 days after administration, vs human IgG1LALA-ADC, n = 4 or 5
[2] = 0.1, 0.3, 1, 3 or 10 mg/kg i.v. 7 days after transplantation, tumor 23 days after administration, vs vehicle ABS, n = 5

B1: hMAb1A-ADC (conjugate)
heavy: EVQLVESGGGLVQPGGSLRLSCAASGFTFNNYYMVWVRQAPGKGLEWVAYISTGGGTTYYRESVKGRFTISRDNSKSTLYLQMNSLRAEDTAVYYCTTSVYFSDGSSHYDGEWFAYWGQGTLVTVSS[letters of human IgG1 constant region left out]
light: DIVMTQSPDSLAVSLGERATINCKASESVSTRMHWYQQKPGQPPKLLIYKASNLASGVPARFSGSGSGTDFTLTISSLQAEDVAVYYCQQSWNGWAFGQGTKVEIKRTVAAPSVFIFPPSDEQLKSGTASVVCLLNNFYPREAKVQWKVDNALQSGNSQESVTEQDSKDSTYSLSSTLTLSKADYEKHKVYACEVTHQGLSSPVTKSFNRGEC
3 mg/kg hMAb1A-ADC i.v. compared to ADCT-301 (0.015 to 1.5 mg/kg i.v.), tumor 21 or 23 days after administration
  number of human GZMB-positive and CD8-positive T cells per mg of the tumor tissue: increase
[1]
  ratio of the number of human CD8-positive T cells to the number of human CD45 cells: increase
  ratio of the number of human GZMB-positive and CD8-positive T cells to the number of human CD45 cells: increase
  ratio of the number of human Treg cells to the number of human CD45 cells: decreased
[2]
  ratio of the number of human CD8-positive T cells to the number of human CD45 cells (% of hCD45): increase
  ratio of the number of human FoxP3-negative and CD4-positive T cells to the number of human CD45 cells (% of hCD45): increase
  ratio of the number of human GZMB-positive and CD8-positive T cells to the number of human CD45 cells (% of hCD45): increase
  ratio of the number of human Treg cells to the number of human CD45 cells (% of hCD45): decreased in a dose-dependent manner
